Two molecules from article PMC8576304 can be followed below.

Amino acid sequences for entries named in this document (tags omitted).
UniProt Q92993: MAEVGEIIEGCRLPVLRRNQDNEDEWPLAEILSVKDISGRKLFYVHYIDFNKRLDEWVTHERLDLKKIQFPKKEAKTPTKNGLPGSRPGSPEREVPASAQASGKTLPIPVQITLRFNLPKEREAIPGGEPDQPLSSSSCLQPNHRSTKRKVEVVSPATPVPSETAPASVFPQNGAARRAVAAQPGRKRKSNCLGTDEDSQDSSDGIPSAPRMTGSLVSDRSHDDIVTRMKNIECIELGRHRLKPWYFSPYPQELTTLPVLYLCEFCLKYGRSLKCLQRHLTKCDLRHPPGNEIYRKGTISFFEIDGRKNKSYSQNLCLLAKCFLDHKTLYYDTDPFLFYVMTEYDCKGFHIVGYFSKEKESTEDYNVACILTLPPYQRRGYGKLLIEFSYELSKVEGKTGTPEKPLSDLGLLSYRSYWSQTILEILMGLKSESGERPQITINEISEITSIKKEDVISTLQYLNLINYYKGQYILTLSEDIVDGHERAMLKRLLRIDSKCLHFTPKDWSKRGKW
UniProt P46937: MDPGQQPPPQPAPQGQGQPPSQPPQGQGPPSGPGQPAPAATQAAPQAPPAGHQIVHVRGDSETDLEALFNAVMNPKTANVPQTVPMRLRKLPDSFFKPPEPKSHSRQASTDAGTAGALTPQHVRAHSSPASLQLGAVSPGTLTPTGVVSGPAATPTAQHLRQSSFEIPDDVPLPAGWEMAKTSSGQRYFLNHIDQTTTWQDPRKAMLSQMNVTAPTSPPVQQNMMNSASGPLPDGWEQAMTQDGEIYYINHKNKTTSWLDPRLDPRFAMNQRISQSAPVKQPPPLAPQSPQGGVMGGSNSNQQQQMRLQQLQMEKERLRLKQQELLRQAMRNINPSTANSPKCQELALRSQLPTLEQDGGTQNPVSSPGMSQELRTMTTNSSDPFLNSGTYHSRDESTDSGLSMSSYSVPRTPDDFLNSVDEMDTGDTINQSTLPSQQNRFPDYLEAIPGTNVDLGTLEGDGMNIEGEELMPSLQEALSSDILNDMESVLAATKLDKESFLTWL

Assay [1] concerns the target T1, TFCP2-Myc (UniProt Q12800).
T1 sequence: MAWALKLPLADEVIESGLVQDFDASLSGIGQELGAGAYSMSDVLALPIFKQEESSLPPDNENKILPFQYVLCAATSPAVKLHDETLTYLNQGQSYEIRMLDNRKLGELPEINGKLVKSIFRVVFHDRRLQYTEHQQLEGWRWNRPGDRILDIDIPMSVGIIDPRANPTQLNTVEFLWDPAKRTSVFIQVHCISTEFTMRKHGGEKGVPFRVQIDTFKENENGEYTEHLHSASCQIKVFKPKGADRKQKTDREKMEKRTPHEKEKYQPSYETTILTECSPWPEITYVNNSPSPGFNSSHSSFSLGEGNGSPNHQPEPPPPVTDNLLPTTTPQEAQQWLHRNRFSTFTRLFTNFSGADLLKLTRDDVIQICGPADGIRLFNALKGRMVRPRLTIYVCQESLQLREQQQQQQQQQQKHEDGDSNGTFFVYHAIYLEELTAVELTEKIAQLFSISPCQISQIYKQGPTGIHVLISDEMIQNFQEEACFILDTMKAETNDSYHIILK
Description: condition: only cells treated with erastin (5 μM, 4 h); proximity ligation; as a5, cells treated with erastin (5 μM, 4 h).

The target in assay [2] is T1, TFCP2-Myc. Description: proximity ligation; Duolink in situ Red kit, anti-Myc and anti-HA antibodies, PC9 cells transfected with the indicated vectors.
In assay [3] the target is T2, TFCP2^Y269A-Myc (UniProt Q12800).
T2 sequence: T1 sequence with Y269A
The assay is described as above.

In assay [4] the target is T1, TFCP2-Myc. Description: condition: only cells treated with erastin (5 μM, 4 h); co-IP; as a3, cells treated with erastin (5 μM, 4 h).
Assay [5] addresses T1, TFCP2-Myc. Description: co-IP; TFCP2-Myc and YAP-HA vectors transfected into PC9 or H1299 cells; anti-Myc (or anti-HA) antibodies, immunoblot; bait level adjusted to the same content. (In general: In western blotting, separated proteins are transferred to a membrane and probed.)
The target of assay [6] is T2, TFCP2^Y269A-Myc. Described as above.
The target in assay [7] is lysine acetyltransferase 5 (endogenous) (human (endogenous in PC9)) (UniProt Q92993). Description: co-IP; endogenous proteins; IgG, anti-KAT5 and anti-TFCP2 antibodies, PC9 cells, immunoblot.
For assay [8], the target named is Yes-associated protein (endogenous) (human (endogenous in PC9 and H1299)) (UniProt P46937). Description: co-IP; endogenous proteins; anti-YAP antibodies, whole cell lysates of PC9 or H1299 cells, protein A/G magnetic beads, immunoblot; YAP level in each co-IP sample adjusted to the same content; also in PC9 cells with KAT5 overexpression or knockdown (Figure 6P).
Assay [9] has the same target. Description: condition: only cells treated with erastin (10 μM, 24 h); co-IP; as a1, cells treated with erastin (10 μM, 24 h) before lysis.

Residue numbers refer to the chain shown, from its start. Results are given in words; binding and its absence hold for the method and conditions named. In cells and extracts the contact can be indirect. Some entries that bind do so weakly or less than the wild type. For part of these data: Where a sequence is shown, tags or fusion partners need not be part of it.

In the case of YAP-HA (from UniProt P46937 1-504), the binding entry in the assay with TFCP2-Myc [1] is given as “no binding”; with TFCP2-Myc [2], “binds”; in the assay with TFCP2^Y269A-Myc [3] it was “no binding”; with TFCP2-Myc [4] it was “no binding”; in the assay with TFCP2-Myc [5] it was “binds”; with TFCP2^Y269A-Myc [6], “no binding”.

B1: transcription factor CP2 (endogenous) (protein, UniProt Q12800 1-502)
chain: T1 sequence
For the molecule B1, the values for the binding result in assay [7], in assay [8] and in assay [9] were “binds”, “binds” and “no binding”, respectively.
